# Measurements published in the supplement of paper PMC11417369.
# This is one part of the list.
# System: PfHDP1 homeodomain (GST-tagged)
# Assay: gcPBM binding intensity (ln(normalized median fluorescence intensity)); higher = stronger DNA binding
# How it was run: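 The highest Masliner-normalised natural-log median intensity across replicate spots of either probe orientation is reported as binding intensity. GST-tagged P. falciparum DNA-binding domains expressed in E. coli were applied for 1 h to an Agilent 4 × 180k array of primer-extended double-stranded 36-bp intergenic genomic probes plus negative controls, and bound protein was detected with Alexa488 anti-GST antibody and scanned at 488 nm.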
row,Sequence,gcPBM binding intensity (ln)
1,ATTATATTAATATATATATATATATATATAATAATA [CACACA_negctrl_site437],6.67
2,TTTTTTTCTCTTTTTATTACAAAAAGGGTTTATATA [TGCATGCA_negctrl_site75],6.14
3,AATAATAAAAAATACACACACATATAAATATATTAC [CACACA_site7597],6.64
4,CATATAAAGATATGAACACACAAAAAGAATATTTCC [CACACA_site6811],6.44
5,TTCCGAACGACCTAAAGTACATGTATTTCAACTTTT [XGTACX_site1220],6.35
6,AGGACACATATATGCAAAAAAAAAAAAAAAAAAAAA [TGCATGCA_negctrl_site427],7
7,TTTTATAAAAAAACTATAAAAATATATAGTACTTAA [CACACA_negctrl_site440],6.21
8,TATGCACACAATATATGTACTTATATATTTTAAAAA [XGTACX_site5482],9.96
9,TAGTGTATGATAATATGTACATACATTTATATAATA [XGTACX_site6330],6.52
10,CATAATATGTGGACTTTACACACTTGTTTTAAAATT [CACACA_site819],6.26
11,ATGCATATAATTATATGTACATATAAGAAATATATA [XGTACX_site517],6.71
12,CATTTATTATGATAAAGTACTTAAATTAATAGATAA [XGTACX_site3566],6.3
13,ATAAAAAACAGTGGCACACATTATGTATCCACCTTT [CACACA_site5958],5.92
14,TTTATTTATTACTAAAGTACTAAATCATATAATTAT [XGTACX_site3654],5.85
15,GTTTAAAGTTGAACAAGTACACATTTATATAAGGCA [XGTACX_site351],6.43
16,TTTTGAAAGTTTTTGTGTCCACATATATTTATATAT [XGTACX_site6563],6.5
17,TGAGATAACAAAAGTTGTACTTTTTTTTTTTTTTTT [XGTACX_site3004],6.44
18,TTTAATAAAAAAATTAAAAATAAAGAAAAAAAAAAA [CACACA_negctrl_site1464],6.3
19,AAATATATATAAAACTCACACATTATCTTATAACCA [CACACA_site5268],6.4

row,Sequence,gcPBM binding intensity (ln)
1,GCATATGTTCAGCGTTGTACATAAAAAAAAACATAT [XGTACX_site5974],6.97
2,TTAAATAAATATAAGTGTACATACACACTTTACAAT [XGTACX_site6348],6.35
3,GCGTAATCTATTTGCACACTTATTTGTTCTTAAAAA [CACACA_site672],10
4,AAAAAATAATATTGTACACACATAAATTCTTTGTCA [CACACA_site5187],6.35
5,ATGTATGGAAATTTTACACACAAGAGTAGTTTAAAA [CACACA_site1710],6.22
6,TATGTGTATACAATATGTACATATGTTAACTTGTAT [XGTACX_site872],6.8
7,AAATTTATTTCTGTGTGTCCACAAAAAAAAATCTTT [XGTACX_site691],5.81
8,CTTATATTAAAACACACACACGCACAAAACAGAAAT [CACACA_site1462],7.35
9,TAAGCCTTTCTATTATGTACTTATTAAAACATGTAG [XGTACX_site8022],6.37
10,TTTTTTTTTTTCAATAGTACTTTCCATTTACATATA [XGTACX_site3889],6.32
11,AAATTTAAAATAAGTAGTACATAATATAAATAAATA [XGTACX_site3592],6.59
12,TATAAAAGAAACTATACACACATATTTTAAATATTT [CACACA_site2753],6.26
13,GTACTTGTATTATGCACACATATAATTAAACATATA [CACACA_site3312],10.1
14,ATTATAAACCAGAATGCATGTAGATGAATCTTTTCT [TGCATGCA_site284],6.35
15,TAAAAATATAAAACATGTACATATATGCATATATTT [XGTACX_site8093],6.69
16,ATATCATAAGTAGAAACACACAATTAGATTTTTTCC [CACACA_site2353],6.08
17,TTTTATAAATACACACGTACGTGTGCATAACGTTTT [XGTACX_site3199],9.18
18,AAAAAAAATAATATTGTACACACATAAATTCTTTGT [CACACA_site8654],6.18
19,TACTTTTTAAAAATGTTTTATATAATAAAAAGATAT [CACACA_negctrl_site678],6.57

row,Sequence,gcPBM binding intensity (ln)
1,TGAGAGTTCTCATATGCACACAAAAAACTTTCATTT [CACACA_site7898],9.83
2,TTGCAACTCTTCAATCGTACACATTATTTATTATAT [XGTACX_site1377],6.89
3,TACATATACATATACACACACACACCCAAATAAATA [CACACA_site1344],7.17
4,AATAATAACACCGTGGATACACAATAACAAAGAACT [CACACA_negctrl_site532],7.15
5,AAATATTTTTTTTCTACACACATACAAATATATATT [CACACA_site5325],7.01
6,TTTCATTTAGCTTTTACACACTATATATCATTGATT [CACACA_site6158],7.02
7,AATTAAATTAGAAGCACACACATATTTATATTTATA [CACACA_site7552],6.39
8,ATACACTCACTCACACGTACAGACAACGGACGATCA [XGTACX_site1097],6.98
9,GTATATATTTAAACACGTACACAAAACCCAAAAAAT [XGTACX_site8110],7.33
10,GAAAAAAAAAAAAAAAAAAAAAGGAAAAAAGTGAAA [CACACA_negctrl_site996],5.88
11,GAATAAATAGACGAGTGTACTTTTTTTTAAAAAAAA [XGTACX_site7880],6.39
12,ACGTTTACGTTATTATGTACGTAATATATCATACCT [XGTACX_site5006],6.11
13,ATAAAACAATAAAATTGTACATAAATTGATTATACT [XGTACX_site6723],6.23
14,AATCTAATATAATGCACACATAAAAAAAAAATCAAA [CACACA_site2714],10.2
15,TATATTTACAATAAAACGTTATTTTTTGTTATTTTC [CACACA_negctrl_site612],6.44
16,TATATACATATATGTACACACATTACAGATGTACAT [CACACA_site966],7.13
17,TTATTATAATCATTAGTGCATATATTATTTTTATAT,8.36
18,AAAAATATAAACTGCACACACACAAAAAAAGAAAAA [CACACA_site648],7.53
